In the supplement of paper PMC11417369:
± gives the standard deviation of the averaged measurements. Some of the results follow.

tested on: PfAP2-LT AP2 domain (GST-tagged); assay: gcPBM binding intensity (ln(normalized median fluorescence intensity)); higher = stronger DNA binding
Procedure, shortened: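 GST-tagged P. falciparum DNA-binding domains produced in E. coli were incubated for 1 h on an Agilent 4 × 180k array of primer-extended double-stranded 36-bp intergenic genomic probes with negative controls. Binding intensity is the highest Masliner-normalised natural-log median intensity across replicate spots of either probe orientation, with bound protein detected by Alexa488 anti-GST antibody at 488 nm.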

Row | Sequence | gcPBM binding intensity (ln)
1 | ATAATAATATTTCTATGTACTTATTTTATGTATTAG [XGTACX_site1747] | 8.8 ± 0.49
2 | TTATCTCTACAAAGTGCACACACGTAAAAACATATA [CACACA_site3957] | 9.09 ± 0.35
3 | GTAGGGGAAAAAAAAACACACAAAAAACAACAGATC [CACACA_site1187] | 9.44 ± 0.56
4 | TGTAATTGTTTAAAGGGTACATATATCAGATGTCTT [XGTACX_site5877] | 8.7 ± 0.4
5 | AATACCATAATCAATGCACACATAACAAAATATTAT [CACACA_site8873] | 9.32 ± 0.46
6 | TACGAAAAAAAAAAAAAAAAAAAAAAACACAAAAAA [CACACA_negctrl_site1643] | 8.44 ± 0.63
7 | TTTTAATATTTTAAGAGTACAGAAATATATAATATG [XGTACX_site4955] | 8.22 ± 0.44
8 | CATATAAATATATATACACACACACCGTAATACATA [CACACA_site9158] | 9.8 ± 0.26
9 | ATTTTATAACATTCATGTACACATTTCATTTATTTG [XGTACX_site3028] | 8.95 ± 0.49
10 | AGAGACACTTTTTATTGTACAAGAGGAGGTTACCTT [XGTACX_site8768] | 8.63 ± 0.35
11 | TTTTTATATTTTATAGTGCAAAAACTTACATAAAAT | 8.37 ± 0.5
12 | ATATAATGGACCATAGTGCATAAAAATAACAAAAAA [GTGCAC_site9558] | 8.96 ± 0.6
13 | TGGAAATATATATATATATATACATATATATATAGC [XGTACX_negctrl_site107] | 8.89 ± 0.34
14 | TATTTTTTTTCTTTATTTATAACGCTCAATATATTC [GTGCAC_negctrl_site265] | 8.7 ± 0.51
15 | TATGAAGAAAAGAATTGTACGATGTTTATTTTGTAT [XGTACX_site8614] | 8.76 ± 0.4
16 | TGTTAATAGAAATACGTGCACACTAAAGGGAAAACA [CACACA_site1485] | 9.11 ± 0.47
17 | TTGTTATCTACCTGTAGTACATATATTATGTAATAT [XGTACX_site735] | 8.84 ± 0.47
18 | TAAATATATATATACACACACACCAAAGCAATAGAT [CACACA_site2940] | 9.79 ± 0.2
19 | TTATATATACCTAAGACACACACATATATATATATA [CACACA_site8153] | 9.705 ± 0.035

Row | Sequence | gcPBM binding intensity (ln)
20 | ATTAAATATGTCAAGTGTACAAAATGTAAAAAAAAA [XGTACX_site4119] | 8.97 ± 0.59
21 | GCCATTGTACCATCCACACACATATAAATATGTATA [CACACA_site7303] | 9.29 ± 0.39
22 | TATATAACATATAACACACATACTTAGTATTACATA [CACACA_site3099] | 8.82 ± 0.38
23 | ACAGTATCAATATGGATAAAAATGTCCATATGCCTG [TGCATGCA_negctrl_site482] | 8.83 ± 0.38
24 | ACATGTGAACATTCAATGCACACGATGTAATTATAC [CACACA_site14] | 9.33 ± 0.34
25 | ATGTGTTAAAAATGCACACAAAAAAATATACATATA [CACACA_site295] | 9.29 ± 0.37
26 | ATATTATATATATACACACACACATGCATGCACCTA [CACACA_site106] | 9.95 ± 0.27
27 | TTTTTTAAATATATGGTGCATAGAAAGATATTATAC [GTGCAC_site9984] | 8.41 ± 0.41
28 | TTTAAAAAAAGCAGTACATGCAAAATAATAACAAGC [TGCATGCA_site392] | 9.2 ± 0.48
29 | CAATTATATAATTGAAGTACTAGGAAAGATATATAT [XGTACX_site5459] | 8.85 ± 0.45
30 | TAAAAAAATATTACATGTACATAAAATATATATATA [XGTACX_site4633] | 8.73 ± 0.47
31 | CTTAAATTTTACTGAAGTACAAAATCGGTTCAATGA [XGTACX_site3292] | 8.4 ± 0.45
32 | GGGAAAAAAAAAAGCACACATACGTAAATATATAAC [CACACA_site226] | 9.1 ± 0.49
33 | TATACATATTTTTTTTGTACATATATAATATATATA [XGTACX_site2399] | 8.62 ± 0.39
34 | AATTAAATTCGGTACTGTACATTTCAAAAATATACG [XGTACX_site48] | 8.65 ± 0.32
35 | ATTCTACTTTTATTTATTTATTTGTTTATATATATA [XGTACX_negctrl_site609] | 8.99 ± 0.47
36 | GAATGAATACGTTTTACACACTTGAATCTAATTTCA [CACACA_site6593] | 8.86 ± 0.47
37 | TTTTTTATTCATGTAACACACATTTAATTATGAATT [CACACA_site2706] | 8.74 ± 0.4
38 | ATAAATACATATGTGTGTACACATTATATATATATA [XGTACX_site1486] | 9.28 ± 0.37

Row | Sequence | gcPBM binding intensity (ln)
39 | GAAAAATTAAAACCTACACACACATTTAAAAAAAAA [CACACA_site9005] | 9.37 ± 0.39
40 | ATATATATATAATCATCACACATGCAGCCCTGATGA [CACACA_site5500] | 9.04 ± 0.38
41 | TATATATTACATACATGTACCCAAAAAAAAAAAAAA [XGTACX_site1168] | 8.57 ± 0.43
42 | TATAAATATAAATATACACACATATATATATATATA [CACACA_site1678] | 9.38 ± 0.13
43 | TTGCATTAATTTATGTGTACATATAAATTTTTATTT [XGTACX_site3060] | 8.84 ± 0.54
44 | ATCAGTCGGCAGGACAGTACACAGTAGCCAGAAAAT [XGTACX_site2550] | 9.22 ± 0.52
45 | CTTATAGGTCATTTCCTTGACCCCCTTTGTTGTACT [CACACA_negctrl_site551] | 8.77 ± 0.61
46 | GTGTAGATATTGAAATGTACTCTCCATATAAAATAA [XGTACX_site4713] | 8.54 ± 0.39
47 | AAAGAATTTGCATATACACACAAAAAAATATATACA [CACACA_site386] | 9.05 ± 0.48
48 | ATATATATATATATATGTACTTATTTATTTATATTA [XGTACX_site4646] | 9.27 ± 0.71
49 | TTACGATACTTTAGGTGTACACAAATATACATGAAT [XGTACX_site4322] | 8.97 ± 0.54
50 | GCCCCCTAAAAAATTACACACGAAAAAAATGAATTT [CACACA_site9128] | 9.545 ± 0.0071
51 | TTTTTTTTTTTTTTATGTACACATCTAAAAAAAAGG [XGTACX_site2067] | 8.23 ± 0.4
52 | GGTCTAACAACATGCGCACACACATGAATATTCATA [CACACA_site1539] | 9.47 ± 0.19
53 | TAAGTATAAAAAAATAGTACAATTATGAAATATCGT [XGTACX_site2529] | 8.79 ± 0.39
54 | TTTAACAAGTTAAACACACATACATATATACATATA [CACACA_site2536] | 8.8 ± 0.29
55 | AACAAAATTGAAGGAACACACATACATATTTATATA [CACACA_site6227] | 9.07 ± 0.41
56 | AAAAAATTAGATTATGCACACACACTAATAAATAAT [CACACA_site8604] | 9.38 ± 0.32
57 | CATATAAATACATGCACACAAAAATATCAATACATT [CACACA_site2392] | 9.3 ± 0.39
